{"source": "PubChem BioAssay (NCI)", "note": "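Five concentrations, 48 hours, 96-well plates. Abbreviation: GI50, concentration required for 50% inhibition of growth. Definition used: TGI = concentration required for complete inhibition of growth.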 Square brackets hold non-standard residues; d marks the D form. Peptide text beside a SMILES is read from it. * marks the point of attachment. Bn2Val = CC(C)[C@@H](C(=O)*)N(Cc1ccccc1)Cc1ccccc1; NH(4-F-benzyl) = Fc1ccc(CN*)cc1; NMeV = CN[C@H](C(=O)O)C(C)C; dNMeA = CN[C@H](C)C(=O)O", "data": [{"system": "NCI-H322M lung", "assay": "NCI tumour cell line growth inhibition, 48 h", "units": {"TGI": "µM", "GI50": "µM"}, "values": [{"smiles": "CCOC(=O)C(NC(=O)c1ccccc1)(Nc1cc(C)on1)C(F)(F)F", "note": "(stereo unspecified)", "TGI": "> 100"}, {"smiles": "O=C1NC(c2cccc3ccccc23)Nc2ccc(O)cc21", "note": "(stereo unspecified)", "TGI": "> 150"}, {"smiles": "C[Si](C)(C)/N=C1\\N2C(=NC1(C(F)(F)F)C(F)(F)F)Sc1ccccc12", "TGI": "> 50"}, {"smiles": "CCOC(=O)Nc1nc2cc(OC)c(OC)c(OC)c2s1", "GI50": 65.7, "TGI": "> 100"}, {"smiles": "OC1(c2ccccc2)CSc2ncnn21", "note": "(stereo unspecified)", "TGI": "> 100"}, {"smiles": "COCP1(=S)OC(C)CCN1C(C)C", "note": "(stereo unspecified)", "TGI": "> 100"}, {"smiles": "O=C1OC(c2cccc(C(F)(F)F)c2)(c2cccc(C(F)(F)F)c2)c2ccc3ccccc3c21", "GI50": "> 100", "TGI": "> 100"}, {"smiles": "O=C1Cc2ccccc2N1/N=C\\c1ccc([N+](=O)[O-])cc1", "TGI": "> 100"}, {"smiles": "Cc1c(C)c(S(=O)(=O)N(CCCCCCN)OCCCN)c(C)c2c1OC(C)(C)CC2", "TGI": 19.1}, {"smiles": "Cc1nc2ccccn2c1NC(=O)NNC(=S)Nc1ccc(Cl)cc1", "GI50": "> 100", "TGI": "> 100"}, {"smiles": "Nc1nonc1-c1nc2cnccc2n1C1CCCCC1", "GI50": "> 25", "TGI": "> 25"}, {"smiles": "CC(=O)Nc1ccc(C2C(C(=O)Nc3ccccc3C)=C(C)NC(C)=C2C(=O)Nc2ccccc2C)cc1", "TGI": "> 100"}, {"smiles": "Cc1c2ccccc2c(C)n2c1nc1cc3ccccc3cc12", "TGI": 2.44}, {"smiles": "NC(C(=O)O)c1cc(=O)[nH]o1", "note": "(stereo unspecified)", "TGI": "> 100"}, {"smiles": "COC(=O)c1c(O)ccc2c1c1c(n2CCc2ccccc2)C(=O)c2ccccc2C1=O", "TGI": 29.9}, {"smiles": "CC(C)(C)N1C(=O)N=[N+](/C(=C(\\c2ccccc2)n2nc([O-])n(C(C)(C)C)c2=O)c2ccccc2)C1=O", "TGI": "> 100"}, {"smiles": "O=C1Cc2c([nH]c3ccc(Cl)cc23)-c2ccccc2N1", "TGI": "> 100"}, {"smiles": "Clc1ccc(-c2noc(CN3CCCCC3)n2)cc1", "TGI": "> 100"}, {"smiles": "C=C(CN1CCc2ccccc2C1)c1ccc(CCC(=O)Nc2ccccc2N)cc1", "GI50": 33.5, "TGI": "> 100"}, {"smiles": "COc1ccc(-c2c3ccccc3c(-c3ccc(OCCBr)cc3)c3ccccc23)cc1", "TGI": "> 100"}, {"smiles": "O=C1C=C(Nc2ccc([N+](=O)[O-])cc2)c2ccccc2C1=O", "GI50": 11.1, "TGI": 23.1}, {"smiles": "O=c1c(Br)c(-c2ccccc2)[nH]c2ccccc12", "TGI": "> 100"}, {"smiles": "COc1cc(Nc2nc3c(N)cc(C(F)(F)F)cc3nc2-c2ccccc2)cc(OC)c1OC", "TGI": "> 100"}, {"smiles": "C/C(Cc1ccc(Cl)cc1)=C(\\c1ccc(OCCN2CCCCCC2)cc1)c1ccc(OC(=O)c2ccccc2)cc1", "GI50": 5.85, "TGI": 16.1}, {"smiles": "O=C(C=P(c1ccccc1)(c1ccccc1)c1ccccc1)CC(=S)CC(=O)C=P(c1ccccc1)(c1ccccc1)c1ccccc1", "TGI": "> 100"}, {"smiles": "O=C1C=CC(=O)C(c2cc(-c3ccc(Cl)cc3)nn2-c2ccccc2)=C1", "GI50": 21.9, "TGI": 63.9}, {"smiles": "C=C1CCC(O)C/C1=C/C=C1\\CCCC2(C)C1CCC2C(C)CCCC(C)C", "note": "(stereo unspecified)", "TGI": "> 56.6"}, {"smiles": "COc1ccc(C2c3c(n(C)c(=O)n(C)c3=O)OC(N(C)C)(N(C)C)C2(F)F)cc1", "note": "(stereo unspecified)", "TGI": "> 100"}, {"smiles": "CCCCCC(=O)n1[nH]c(=O)n(-c2ccc(OC)cc2)c1=O", "TGI": "> 100"}, {"smiles": "CC(C)Sc1nncc(/C(N)=N/O)n1", "TGI": "> 100"}, {"smiles": "Cc1ccc(N=Nc2c(-c3ccccc3)nn(C(=O)CC(=O)Nc3ccc(Cl)cc3)c2-c2ccccc2)cc1", "TGI": "> 100"}, {"smiles": "CCOC(=O)Nn1cnnc1C", "TGI": "> 100"}, {"smiles": "CC/C(=C(\\c1ccc(Cl)cc1)c1ccc(OCCN2CCCCC2)cc1)c1ccc(O)cc1", "GI50": 1.72, "TGI": 3.67}, {"smiles": "CC(C)OC(=O)Nc1ccc(-c2nc(-c3cccc(OCCN4CCOCC4)c3)c(-c3ccnc(Br)c3)[nH]2)cc1", "GI50": 4.55, "TGI": "> 100"}, {"smiles": "CC(C)[C@H](NC(=O)[C@H](C(C)C)N(Cc1ccccc1)Cc1ccccc1)C(=O)N(C)[C@H](C(=O)N1CCC[C@H]1C(=O)N(C)[C@H](C)C(=O)NCc1ccc(F)cc1)C(C)C", "note": "(Bn2Val-V[NMeV]P[dNMeA]-{NH(4-F-benzyl)})", "TGI": "> 67.3"}, {"smiles": "CC(C)=C1C(=O)c2c(Cl)sc(Cl)c2C1=O", "TGI": "> 100"}, {"smiles": "CCCCCCC[CH2][Sn]([Cl])([Cl])[CH2]CCCCCCC", "GI50": 11.6, "TGI": 23.9}, {"smiles": "CC#CC#Cc1cccc(=O)o1", "GI50": 6.31, "TGI": 21.5}, {"smiles": "C/C=C1/C[C@@H](C)[C@@](C)(O)C(=O)OCC2=CC[N+]3([O-])CC[C@@H](OC1=O)[C@@H]23", "note": "(stereo partly specified)", "TGI": "> 100"}]}]}
